{
  "source": "the supplement of paper PMC8728848",
  "assay_in_all_cases": "glycan array binding signal (z-score within array); higher = stronger binding",
  "conditions_in_all_cases": "glycan notation: IUPAC condensed, linker removed",
  "key": {"[1]": {"molecular_target": "Man(a1-2)Man(a1-3)[Man(a1-6)]Man(a1-6)[Man(a1-2)Man(a1-3)]Man(b1-4)GlcNAc(b1-4)GlcNAc", "outline": "(§1)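 The Consortium for Functional Glycomics database supplied 3228 glycan arrays, of which those lacking an available protein sequence were dropped. The binding signal, a within-array Z-score, was averaged across arrays of the same protein sequence and across linkers. Negative scores can be read as non-binding.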"}, "[2]": {"molecular_target": "Man(a1-2)Man(a1-6)[Man(a1-3)]Man(a1-6)[Man(a1-2)Man(a1-2)Man(a1-3)]Man", "outline": "as §1"}, "[3]": {"molecular_target": "Man(a1-2)Man(a1-6)[Man(a1-3)]Man(a1-6)[Man(a1-2)Man(a1-2)Man(a1-3)]Man(b1-4)GlcNAc(b1-4)GlcNAc", "outline": "as §1"}, "Man(a1-3)[Man(a1-6)]Man": {"molecular_target": "Man(a1-3)[Man(a1-6)]Man", "outline": "as §1"}, "[4]": {"molecular_target": "Man(a1-3)[Man(a1-6)]Man(a1-6)[Man(a1-2)Man(a1-3)]Man(b1-4)GlcNAc(b1-4)GlcNAc", "outline": "as §1"}, "[5]": {"molecular_target": "Man(a1-3)[Man(a1-6)]Man(a1-6)[Man(a1-3)]Man", "outline": "as §1"}, "[6]": {"molecular_target": "Man(a1-3)[Man(a1-6)]Man(a1-6)[Man(a1-3)]Man(b1-4)GlcNAc(b1-4)GlcNAc", "outline": "as §1"}, "[7]": {"molecular_target": "Man(a1-3)[Man(a1-6)]Man(b1-4)GlcNAc(b1-4)GlcNAc", "outline": "as §1"}, "Man(a1-6)Man": {"molecular_target": "Man(a1-6)Man", "outline": "as §1"}, "Man(b1-4)GlcNAc": {"molecular_target": "Man(b1-4)GlcNAc", "outline": "as §1"}, "Neu5Ac(a2-3)Gal": {"molecular_target": "Neu5Ac(a2-3)Gal", "outline": "as §1"}, "[8]": {"molecular_target": "Neu5Ac(a2-3)Gal(b1-3)GalNAc", "outline": "as §1"}, "[9]": {"molecular_target": "Neu5Ac(a2-3)Gal(b1-3)GalNAc(b1-3)Gal(a1-4)Gal(b1-4)Glc", "outline": "as §1"}, "[10]": {"molecular_target": "Neu5Ac(a2-3)Gal(b1-3)GalNAc(b1-4)[Neu5Ac(a2-3)]Gal(b1-4)Glc", "outline": "as §1"}, "[11]": {"molecular_target": "Neu5Ac(a2-3)Gal(b1-3)GalNAc(b1-4)[Neu5Ac(a2-8)Neu5Ac(a2-3)]Gal(b1-4)Glc", "outline": "as §1"}, "[12]": {"molecular_target": "Neu5Ac(a2-3)Gal(b1-3)GalNAc6S", "outline": "as §1"}, "[13]": {"molecular_target": "Neu5Ac(a2-3)Gal(b1-3)GlcNAc", "outline": "as §1"}, "[14]": {"molecular_target": "Neu5Ac(a2-3)Gal(b1-3)GlcNAc(b1-3)Gal(b1-3)GlcNAc", "outline": "as §1"}, "[15]": {"molecular_target": "Neu5Ac(a2-3)Gal(b1-3)GlcNAc(b1-3)Gal(b1-4)GlcNAc", "outline": "as §1"}, "[16]": {"molecular_target": "Neu5Ac(a2-3)Gal(b1-3)GlcNAc(b1-3)GalNAc", "outline": "as §1"}, "[17]": {"molecular_target": "Neu5Ac(a2-3)Gal(b1-3)GlcNAc6S", "outline": "as §1"}, "[18]": {"molecular_target": "Neu5Ac(a2-3)Gal(b1-3)[Fuc(a1-4)]GlcNAc", "outline": "as §1"}, "[19]": {"molecular_target": "Neu5Ac(a2-3)Gal(b1-3)[Fuc(a1-4)]GlcNAc(b1-3)Gal(b1-3)[Fuc(a1-4)]GlcNAc", "outline": "as §1"}, "[20]": {"molecular_target": "Neu5Ac(a2-3)Gal(b1-3)[Fuc(a1-4)]GlcNAc(b1-3)Gal(b1-4)[Fuc(a1-3)]GlcNAc", "outline": "as §1"}, "[21]": {"molecular_target": "Neu5Ac(a2-3)Gal(b1-3)[Neu5Ac(a2-3)Gal(b1-4)]GlcNAc", "outline": "as §1"}},
  "note": "The list shows a part of the results.",
  "data": [
    {"binder": "3FTT (Staphylococcus aureus), Q5HCZ5 (protein) MTEKEKMLAEKWYDANFDQYLINERARAKDICFELNHTRPSATNKRKELIDQLFQTTTDNVSISIPFDTDYGWNVKLGKNVYVNTNCYFMDGGQITIGDNVFIGPNCGFYTATHPLNFHHRNEGFEKAGPIHIGSNTWFGGHVAVLPGVTIGEGSVIGAGSVVTKDIPPHSLAVGNPCKVVRKIDNDLPSETLNDETIK", "values": [
      {"measurement": "glycan array binding signal (z-score)", "setting": "[1]", "value": -0.059},
      {"measurement": "glycan array binding signal (z-score)", "setting": "[2]", "value": 0.023},
      {"measurement": "glycan array binding signal (z-score)", "setting": "[3]", "value": -0.099},
      {"measurement": "glycan array binding signal (z-score)", "setting": "Man(a1-3)[Man(a1-6)]Man", "value": -0.136},
      {"measurement": "glycan array binding signal (z-score)", "setting": "[4]", "value": -0.297},
      {"measurement": "glycan array binding signal (z-score)", "setting": "[5]", "value": -0.106},
      {"measurement": "glycan array binding signal (z-score)", "setting": "[6]", "value": 0.277},
      {"measurement": "glycan array binding signal (z-score)", "setting": "[7]", "value": -0.122},
      {"measurement": "glycan array binding signal (z-score)", "setting": "Man(a1-6)Man", "value": -0.205},
      {"measurement": "glycan array binding signal (z-score)", "setting": "Man(b1-4)GlcNAc", "value": -0.291},
      {"measurement": "glycan array binding signal (z-score)", "setting": "Neu5Ac(a2-3)Gal", "value": -0.203},
      {"measurement": "glycan array binding signal (z-score)", "setting": "[8]", "value": 0.041},
      {"measurement": "glycan array binding signal (z-score)", "setting": "[9]", "value": -0.166},
      {"measurement": "glycan array binding signal (z-score)", "setting": "[10]", "value": -0.102},
      {"measurement": "glycan array binding signal (z-score)", "setting": "[11]", "value": 0.088},
      {"measurement": "glycan array binding signal (z-score)", "setting": "[12]", "value": -0.023},
      {"measurement": "glycan array binding signal (z-score)", "setting": "[13]", "value": -0.112},
      {"measurement": "glycan array binding signal (z-score)", "setting": "[14]", "value": -0.09},
      {"measurement": "glycan array binding signal (z-score)", "setting": "[15]", "value": 0.055},
      {"measurement": "glycan array binding signal (z-score)", "setting": "[16]", "value": -0.066},
      {"measurement": "glycan array binding signal (z-score)", "setting": "[17]", "value": 0.151},
      {"measurement": "glycan array binding signal (z-score)", "setting": "[18]", "value": -0.02},
      {"measurement": "glycan array binding signal (z-score)", "setting": "[19]", "value": -0.009},
      {"measurement": "glycan array binding signal (z-score)", "setting": "[20]", "value": -0.089},
      {"measurement": "glycan array binding signal (z-score)", "setting": "[21]", "value": -0.249}
    ]}
  ]
}
